In paper PMC12480466:
Residue numbers refer to the chain shown, from its start. Results are given in words; binding and its absence hold for the method and conditions named. In cells and extracts the contact can be indirect. Some entries that bind do so weakly or less than the wild type. Tags and fused reporters may be left off the sequences shown.

Protein sequences, listed by entry. Tags and fused reporters are not part of them.
UniProt Q9BV73: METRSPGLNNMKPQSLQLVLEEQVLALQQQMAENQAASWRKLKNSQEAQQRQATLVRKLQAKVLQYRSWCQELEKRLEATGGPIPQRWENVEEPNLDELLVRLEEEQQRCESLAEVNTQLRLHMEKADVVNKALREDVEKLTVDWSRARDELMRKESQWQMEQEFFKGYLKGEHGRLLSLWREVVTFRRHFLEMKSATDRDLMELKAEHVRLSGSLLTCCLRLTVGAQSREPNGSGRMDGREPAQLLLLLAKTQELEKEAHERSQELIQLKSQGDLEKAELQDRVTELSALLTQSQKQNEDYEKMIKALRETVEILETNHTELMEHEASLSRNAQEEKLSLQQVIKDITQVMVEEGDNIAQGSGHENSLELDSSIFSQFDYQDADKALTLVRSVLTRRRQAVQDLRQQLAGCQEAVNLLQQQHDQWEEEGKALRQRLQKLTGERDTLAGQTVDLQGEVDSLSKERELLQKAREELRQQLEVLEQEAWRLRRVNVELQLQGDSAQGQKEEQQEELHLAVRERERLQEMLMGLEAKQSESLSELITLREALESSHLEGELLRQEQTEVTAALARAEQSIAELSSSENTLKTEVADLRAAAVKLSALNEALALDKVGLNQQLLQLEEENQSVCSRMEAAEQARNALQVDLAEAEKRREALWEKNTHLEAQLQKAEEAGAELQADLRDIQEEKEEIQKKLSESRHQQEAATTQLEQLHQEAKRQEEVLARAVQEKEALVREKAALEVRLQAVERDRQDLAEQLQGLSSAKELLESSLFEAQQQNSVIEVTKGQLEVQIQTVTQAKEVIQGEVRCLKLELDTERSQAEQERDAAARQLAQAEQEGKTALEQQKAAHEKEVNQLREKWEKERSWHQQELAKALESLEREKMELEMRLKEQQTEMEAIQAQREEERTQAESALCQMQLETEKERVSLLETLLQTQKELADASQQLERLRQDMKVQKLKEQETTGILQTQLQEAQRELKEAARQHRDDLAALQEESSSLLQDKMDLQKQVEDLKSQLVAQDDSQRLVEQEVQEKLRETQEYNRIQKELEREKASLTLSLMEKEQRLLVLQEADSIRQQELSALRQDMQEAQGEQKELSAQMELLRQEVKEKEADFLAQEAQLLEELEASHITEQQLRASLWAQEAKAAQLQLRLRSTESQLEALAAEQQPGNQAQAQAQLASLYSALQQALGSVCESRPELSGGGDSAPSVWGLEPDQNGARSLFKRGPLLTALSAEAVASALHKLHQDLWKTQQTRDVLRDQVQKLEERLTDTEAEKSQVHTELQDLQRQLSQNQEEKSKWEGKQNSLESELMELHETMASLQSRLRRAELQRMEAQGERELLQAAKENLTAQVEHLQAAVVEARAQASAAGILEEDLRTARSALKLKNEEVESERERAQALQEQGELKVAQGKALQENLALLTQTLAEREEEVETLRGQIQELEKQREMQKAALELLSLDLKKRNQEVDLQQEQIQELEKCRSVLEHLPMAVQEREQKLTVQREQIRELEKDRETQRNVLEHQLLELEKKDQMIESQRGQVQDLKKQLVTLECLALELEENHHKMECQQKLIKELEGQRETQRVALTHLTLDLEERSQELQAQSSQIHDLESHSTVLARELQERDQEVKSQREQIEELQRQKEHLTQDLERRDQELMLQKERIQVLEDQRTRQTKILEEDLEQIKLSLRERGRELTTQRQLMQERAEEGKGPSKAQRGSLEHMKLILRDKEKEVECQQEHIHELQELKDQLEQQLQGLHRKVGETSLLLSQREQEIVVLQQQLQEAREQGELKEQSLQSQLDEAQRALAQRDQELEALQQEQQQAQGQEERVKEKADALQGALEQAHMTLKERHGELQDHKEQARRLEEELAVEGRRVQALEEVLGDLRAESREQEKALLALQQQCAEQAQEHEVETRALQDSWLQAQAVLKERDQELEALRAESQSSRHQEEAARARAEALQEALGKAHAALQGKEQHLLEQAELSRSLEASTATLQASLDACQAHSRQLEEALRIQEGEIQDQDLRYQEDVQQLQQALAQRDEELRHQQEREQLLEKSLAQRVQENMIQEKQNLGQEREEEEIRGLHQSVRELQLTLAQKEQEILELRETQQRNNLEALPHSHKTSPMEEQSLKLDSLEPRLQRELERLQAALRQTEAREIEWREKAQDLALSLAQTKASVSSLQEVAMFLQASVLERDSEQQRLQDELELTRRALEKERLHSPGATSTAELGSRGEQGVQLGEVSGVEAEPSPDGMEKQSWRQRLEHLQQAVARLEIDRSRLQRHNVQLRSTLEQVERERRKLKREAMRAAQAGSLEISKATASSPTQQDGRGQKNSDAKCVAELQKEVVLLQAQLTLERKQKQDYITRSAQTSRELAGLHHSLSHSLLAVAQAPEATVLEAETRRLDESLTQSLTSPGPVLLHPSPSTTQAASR
UniProt P53350: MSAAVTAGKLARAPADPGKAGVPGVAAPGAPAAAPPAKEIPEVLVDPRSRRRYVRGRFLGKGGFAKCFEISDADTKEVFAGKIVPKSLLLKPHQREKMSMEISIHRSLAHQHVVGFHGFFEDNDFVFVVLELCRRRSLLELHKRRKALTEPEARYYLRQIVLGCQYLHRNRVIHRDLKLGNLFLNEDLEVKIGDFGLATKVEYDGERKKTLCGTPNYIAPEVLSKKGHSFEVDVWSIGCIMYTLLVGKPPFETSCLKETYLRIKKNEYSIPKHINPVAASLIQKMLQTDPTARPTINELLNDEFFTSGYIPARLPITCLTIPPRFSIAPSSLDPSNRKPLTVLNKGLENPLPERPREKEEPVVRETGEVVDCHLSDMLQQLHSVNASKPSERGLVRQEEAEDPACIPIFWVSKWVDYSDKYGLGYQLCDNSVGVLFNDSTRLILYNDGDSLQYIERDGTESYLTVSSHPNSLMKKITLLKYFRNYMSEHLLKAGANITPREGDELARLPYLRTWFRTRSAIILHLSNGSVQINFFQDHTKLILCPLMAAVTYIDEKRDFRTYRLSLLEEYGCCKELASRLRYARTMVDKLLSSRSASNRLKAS

T1: 3×FLAG-NEK2 (human) (UniProt P51955)
T1 sequence: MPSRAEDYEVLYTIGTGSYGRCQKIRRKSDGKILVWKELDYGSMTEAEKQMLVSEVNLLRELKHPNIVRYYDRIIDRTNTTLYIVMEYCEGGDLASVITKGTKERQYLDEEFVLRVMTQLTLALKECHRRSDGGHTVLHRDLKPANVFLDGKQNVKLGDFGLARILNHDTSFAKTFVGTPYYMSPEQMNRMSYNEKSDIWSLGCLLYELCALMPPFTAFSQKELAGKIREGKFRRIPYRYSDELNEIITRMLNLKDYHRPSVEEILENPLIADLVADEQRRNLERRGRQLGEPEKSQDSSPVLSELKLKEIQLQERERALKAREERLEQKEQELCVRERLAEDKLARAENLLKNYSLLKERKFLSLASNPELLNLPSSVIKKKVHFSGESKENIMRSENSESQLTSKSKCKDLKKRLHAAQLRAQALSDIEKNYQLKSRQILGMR

B1: 3×FLAG-TUFT1-2A (protein, UniProt Q9NNX1-1 1-390)
chain: MNGTRNWCTLVDVHPEDQAAGSVDILRLALQGELTGDELEHIAQKAGRKTYAMVSSHSAGHSLASELVEAHDGHEEIIKVYLKGRSGDKMIHEKNINQLKSEVQYIQEARNCLQKLREDISSKLDRNLGDSLHRQEIQVVLEKPNGFSQSPTALYSSPPEVDTCINEDVESLRKTVQDLLAKLQEAKRQHQSDCVAFEVTLSRYQREAEQSNVALQREEDRVEQKEAEVGELQRRLLGMETEHQALLAKVREGEVALEELRSNNADCQAEREKAATLEKEVAGLREKIHHLDDMLKSQQRKVRQMIEQLQNSKAVIQSKDATIQELKEKIAYLEAENLEMHDRMEHLIEKQISHGNFSTQARAKTENPGSIRISKPPSPKPMPVIRVVET
B2: 3×FLAG-TUFT1 N-terminus (1–150 aa) (domain or fragment, UniProt Q9NNX1-1 1-150)
chain: MNGTRNWCTLVDVHPEDQAAGSVDILRLTLQGELTGDELEHIAQKAGRKTYAMVSSHSAGHSLASELVESHDGHEEIIKVYLKGRSGDKMIHEKNINQLKSEVQYIQEARNCLQKLREDISSKLDRNLGDSLHRQEIQVVLEKPNGFSQS
B3: 3×FLAG-TUFT1 C-terminus (151–390 aa) (domain or fragment, UniProt Q9NNX1-1 151-390)
chain: PTALYSSPPEVDTCINEDVESLRKTVQDLLAKLQEAKRQHQSDCVAFEVTLSRYQREAEQSNVALQREEDRVEQKEAEVGELQRRLLGMETEHQALLAKVREGEVALEELRSNNADCQAEREKAATLEKEVAGLREKIHHLDDMLKSQQRKVRQMIEQLQNSKAVIQSKDATIQELKEKIAYLEAENLEMHDRMEHLIEKQISHGNFSTQARAKTENPGSIRISKPPSPKPMPVIRVVET
B4: GFP-TUFT1 (protein, UniProt Q9NNX1-1 1-390)
chain: B1 chain with A29T, A70S

Assays:
Experiment in all cases: co-IP; lysates of HEK293T cells overexpressing both tagged proteins; lysis buffer 150 mM NaCl, 50 mM HEPES, 1 mM MgCl2, 1 mM EGTA, 0.5% Triton X-100, pH 7.4; antibodies and protein G-Sepharose, 4 °C, 4 h or overnight; immunoblotting
[1] = target: C-Nap1-GFP (human) (UniProt Q9BV73)
[2] = target: GFP-PLK1 (FL) (human) (UniProt P53350)
[3] = target: T1, 3×FLAG-NEK2 (human)

Row | Binder | binding [1] | further results
1 | B1 | binds | 
2 | B2 | binds | 
3 | B3 |  | binding [2]: binds
4 | B4 |  | binding [3]: binds
